# In the supplement of paper PMC8285479:
# Structures can show the parent of a compound that is named as a salt. ± gives the standard deviation of the averaged measurements. The full ranking holds about 1,900 compounds; the median of “normalised cell viability (NPI; 0 = phenylarsine oxide control, 1 = DMSO control)” is about 1, and the lowest 2% start at about 0.039. The list shows a part of the results.
# System: NCI-H1944
# Assay: normalised cell viability (NPI; 0 = phenylarsine oxide control, 1 = DMSO control) (fraction of DMSO control); NCI-H1944 is a non-small cell lung cancer line; higher = more viable cells (less compound toxicity)
# Details: 6 days
# [1] = glucocorticoid arm: hydrocortisone 2.75 uM co-treatment, compound 1 µM
# [2] = glucocorticoid arm: hydrocortisone 2.75 uM co-treatment, compound 5 µM
# [3] = glucocorticoid arm: hydrocortisone 2.75 uM pre-treated 2 days and continued, compound 1 µM
# [4] = glucocorticoid arm: hydrocortisone 2.75 uM pre-treated 2 days and continued, compound 5 µM
# [5] = glucocorticoid arm: vehicle, compound 1 µM
# [6] = glucocorticoid arm: vehicle, compound 5 µM
# 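Note: CTB read-out in 384-well plates, mean of triplicate wells, normalised per plate against 1 µM phenylarsine oxide and 0.1% DMSO, compounds added 24 h after seeding.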
SMILES,normalised cell viability [1],normalised cell viability [2],normalised cell viability [3],normalised cell viability [4],normalised cell viability [5],normalised cell viability [6]
Nc1nc(Nc2ccc(S(N)(=O)=O)cc2)nn1C(=O)c1c(F)cccc1F,0.953 ± 0.018,0.284 ± 0.052,1 ± 0.038,0.769 ± 0.061,0.791 ± 0.026,0.042 ± 0.0075
Cc1[nH]c(/C=C2\C(=O)Nc3ccc(S(=O)(=O)Cc4c(Cl)cccc4Cl)cc32)c(C)c1C(=O)N1CCC[C@@H]1CN1CCCC1,1.04,1.07 ± 0.015,1.033 ± 0.0058,1.063 ± 0.0058,1.002 ± 0.0068,0.993 ± 0.0061
N#CC(=C(/N)Sc1ccccc1N)/C(C#N)=C(\N)Sc1ccccc1N,1.02 ± 0.011,1.08 ± 0.025,0.976 ± 0.016,1.01 ± 0.027,1.023 ± 0.0058,1.02 ± 0.015
CC(C)(Oc1ccc(C2CC2(Cl)Cl)cc1)C(=O)O (centres undefined) [Ciprofibrate],0.9977 ± 0.0025,1.03 ± 0.011,1.001 ± 0.0082,1.03,0.992 ± 0.0072,0.992 ± 0.011
c1ccc2c(-c3cnn4cc(-c5ccc(N6CCNCC6)cc5)cnc34)ccnc2c1,1.043 ± 0.0058,0.832 ± 0.14,1.04 ± 0.01,1.09 ± 0.021,1.01 ± 0.011,0.0214 ± 0.0048
CC(=O)NCCc1ccc(O)c(O)c1 [N-Acetyldopamine monohydrate],0.999 ± 0.011,0.998 ± 0.011,0.988 ± 0.011,0.988 ± 0.017,0.984 ± 0.015,0.979 ± 0.0056
N[C@@H](Cc1ccc(F)cc1)C(=O)O [p-Fluoro-L-phenylalanine],1 ± 0.015,1.01 ± 0.01,1.006 ± 0.0075,1.007 ± 0.0058,1 ± 0.0092,0.9973 ± 0.0046
Nc1nccc2c1ncn2[C@@H]1O[C@H](CO)[C@@H](O)[C@H]1O [3-deazaadenosine],0.989 ± 0.0099,0.973 ± 0.025,0.996 ± 0.012,0.981 ± 0.011,0.9687 ± 0.0035,0.968 ± 0.0062
CC[C@]1(O)C[C@@H]2CN(CCc3c([nH]c4ccccc34)[C@@](C(=O)OC)(c3cc4c(cc3OC)N(C)[C@H]3[C@@](O)(C(=O)OC)[C@H](OC(C)=O)[C@]5(CC)C=CCN6CC[C@]43[C@@H]65)C2)C1 [Vinblastine sulfate salt; Vinblastine sulfate],0.354 ± 0.019,1.023 ± 0.0058,0.621 ± 0.029,1.03 ± 0.027,0.0439 ± 0.00099,1.017 ± 0.0058
CC[C@]1(O)C[C@@H]2CN(CCc3c([nH]c4ccccc34)[C@@](C(=O)OC)(c3cc4c(cc3OC)N(C)[C@H]3[C@@](O)(C(=O)OC)[C@H](OC(C)=O)[C@]5(CC)C=CCN6CC[C@]43[C@@H]65)C2)C1 [Vinblastine sulfate salt],0.361 ± 0.02,0.337 ± 0.021,0.795 ± 0.17,0.94 ± 0.023,0.0757 ± 0.0017,0.0495 ± 0.005
Cn1cnc2c(NC3CCCC3)ncnc21 [N6-Cyclopentyl-9-methyladenine],1.006 ± 0.0063,1.03 ± 0.02,1.023 ± 0.0058,1.1 ± 0.081,1.023 ± 0.0058,0.902 ± 0.22
Cc1cc(CS(=O)(=O)c2ccccc2)cc(OCc2ccc(CN3CCC[C@@H]3CO)cc2)c1,0.979 ± 0.014,1.02 ± 0.012,0.984 ± 0.019,1.02 ± 0.024,1.008 ± 0.0084,1.01 ± 0.0063
CCc1cc(/C(C)=N/OCc2ccc(C3CCCCC3)c(C(F)(F)F)c2)ccc1CN1CC(C(=O)O)C1 [BAF312 (Siponimod)],1.013 ± 0.0058,1.007 ± 0.0058,1.02 ± 0.015,1.01 ± 0.013,1.001 ± 0.0081,0.997 ± 0.012
Cc1cc(N2CCOCC2)cc2[nH]c(-c3c(NCC(O)c4cccc(Cl)c4)cc[nH]c3=O)nc12 (centres undefined),0.277 ± 0.0085,0.205 ± 0.011,0.3733 ± 0.0021,0.267 ± 0.0095,0.753 ± 0.051,0.263 ± 0.036
Clc1ccccc1C(c1ccccc1)(c1ccccc1)n1ccnc1 [Clotrimazole],1 ± 0.027,0.975 ± 0.015,1.01 ± 0.012,0.9775 ± 0.0064,1.01,1.017 ± 0.0058
CN1CCC[C@H]1c1cccnc1 [(-)-Nicotine hydrogen tartrate salt],1.007 ± 0.0058,1 ± 0.02,1 ± 0.01,0.972 ± 0.038,1.002 ± 0.0068,1.01 ± 0.011
CCCC(C(=O)OCCN(CC)CC)(c1ccccc1)c1ccccc1 [SKF-525A hydrochloride],0.96 ± 0.012,0.826 ± 0.078,0.999 ± 0.011,0.984 ± 0.031,0.98 ± 0.004,0.979 ± 0.02
CO[C@H]1C(=O)[C@]2(C)[C@@H](OC)C[C@H]3OC[C@@]3(OC(C)=O)[C@H]2[C@H](OC(=O)c2ccccc2)[C@]2(O)C[C@H](OC(=O)[C@H](O)[C@@H](NC(=O)OC(C)(C)C)c3ccccc3)C(C)=C1C2(C)C [Cabazitaxel],0.191 ± 0.012,1.05 ± 0.021,0.468 ± 0.0065,1.05 ± 0.015,0.0505 ± 0.01,1.007 ± 0.0058
COc1cc(CC(=O)O)ccc1O [4-Hydroxy-3-methoxyphenylacetic acid],1.007 ± 0.0058,1.01 ± 0.014,1.01 ± 0.01,1.02,1.01 ± 0.01,1.01
CCN1/C(=C/C(C)=O)Sc2ccc(OC)cc21,1.002 ± 0.0076,0.895 ± 0.016,1.013 ± 0.0058,0.994 ± 0.066,0.9943 ± 0.0025,0.997 ± 0.021
"CN(C)C(=O)N=NC(=O)N(C)C [N,N,N',N'-Tetramethylazodicarboxamide]",0.9907 ± 0.0011,0.9917 ± 0.0085,0.997 ± 0.0052,0.998 ± 0.024,0.99967 ± 0.00058,0.99933 ± 0.00058
C[C@H]1c2cccc(O)c2C(O)=C2C(=O)[C@]3(O)C(O)=C(C(N)=O)C(=O)[C@@H](N(C)C)[C@@H]3[C@@H](O)[C@@H]21 [Doxycycline HCl],0.994 ± 0.007,0.986 ± 0.026,0.9957 ± 0.0031,0.99 ± 0.006,0.9947 ± 0.0025,1 ± 0.015
C=CCc1ccccc1OCC(O)CNC(C)C (centres undefined) [Alprenolol hydrochloride],0.987 ± 0.023,1.01 ± 0.026,1 ± 0.018,1.015 ± 0.0071,1 ± 0.013,1.003 ± 0.0061
CC(=O)OC(C)C[N+](C)(C)C (stereo not drawn) [Acetyl-beta-methylcholine chloride],0.9817 ± 0.0061,0.981 ± 0.01,0.9823 ± 0.0059,0.978 ± 0.029,0.97 ± 0.014,0.97 ± 0.005
